Here are results for six molecules from article PMC8041803.

Protein sequences, listed by entry. Tags and fused reporters are not part of them.
UniProt Q13426: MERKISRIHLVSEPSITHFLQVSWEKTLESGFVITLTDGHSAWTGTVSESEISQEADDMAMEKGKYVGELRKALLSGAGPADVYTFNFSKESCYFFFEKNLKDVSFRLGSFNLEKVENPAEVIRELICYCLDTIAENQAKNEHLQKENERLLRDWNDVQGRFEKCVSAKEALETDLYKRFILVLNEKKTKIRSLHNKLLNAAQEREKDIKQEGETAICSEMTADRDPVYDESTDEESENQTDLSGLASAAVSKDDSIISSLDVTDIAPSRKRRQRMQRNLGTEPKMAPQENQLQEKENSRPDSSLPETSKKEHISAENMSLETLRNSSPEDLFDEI
UniProt P78527: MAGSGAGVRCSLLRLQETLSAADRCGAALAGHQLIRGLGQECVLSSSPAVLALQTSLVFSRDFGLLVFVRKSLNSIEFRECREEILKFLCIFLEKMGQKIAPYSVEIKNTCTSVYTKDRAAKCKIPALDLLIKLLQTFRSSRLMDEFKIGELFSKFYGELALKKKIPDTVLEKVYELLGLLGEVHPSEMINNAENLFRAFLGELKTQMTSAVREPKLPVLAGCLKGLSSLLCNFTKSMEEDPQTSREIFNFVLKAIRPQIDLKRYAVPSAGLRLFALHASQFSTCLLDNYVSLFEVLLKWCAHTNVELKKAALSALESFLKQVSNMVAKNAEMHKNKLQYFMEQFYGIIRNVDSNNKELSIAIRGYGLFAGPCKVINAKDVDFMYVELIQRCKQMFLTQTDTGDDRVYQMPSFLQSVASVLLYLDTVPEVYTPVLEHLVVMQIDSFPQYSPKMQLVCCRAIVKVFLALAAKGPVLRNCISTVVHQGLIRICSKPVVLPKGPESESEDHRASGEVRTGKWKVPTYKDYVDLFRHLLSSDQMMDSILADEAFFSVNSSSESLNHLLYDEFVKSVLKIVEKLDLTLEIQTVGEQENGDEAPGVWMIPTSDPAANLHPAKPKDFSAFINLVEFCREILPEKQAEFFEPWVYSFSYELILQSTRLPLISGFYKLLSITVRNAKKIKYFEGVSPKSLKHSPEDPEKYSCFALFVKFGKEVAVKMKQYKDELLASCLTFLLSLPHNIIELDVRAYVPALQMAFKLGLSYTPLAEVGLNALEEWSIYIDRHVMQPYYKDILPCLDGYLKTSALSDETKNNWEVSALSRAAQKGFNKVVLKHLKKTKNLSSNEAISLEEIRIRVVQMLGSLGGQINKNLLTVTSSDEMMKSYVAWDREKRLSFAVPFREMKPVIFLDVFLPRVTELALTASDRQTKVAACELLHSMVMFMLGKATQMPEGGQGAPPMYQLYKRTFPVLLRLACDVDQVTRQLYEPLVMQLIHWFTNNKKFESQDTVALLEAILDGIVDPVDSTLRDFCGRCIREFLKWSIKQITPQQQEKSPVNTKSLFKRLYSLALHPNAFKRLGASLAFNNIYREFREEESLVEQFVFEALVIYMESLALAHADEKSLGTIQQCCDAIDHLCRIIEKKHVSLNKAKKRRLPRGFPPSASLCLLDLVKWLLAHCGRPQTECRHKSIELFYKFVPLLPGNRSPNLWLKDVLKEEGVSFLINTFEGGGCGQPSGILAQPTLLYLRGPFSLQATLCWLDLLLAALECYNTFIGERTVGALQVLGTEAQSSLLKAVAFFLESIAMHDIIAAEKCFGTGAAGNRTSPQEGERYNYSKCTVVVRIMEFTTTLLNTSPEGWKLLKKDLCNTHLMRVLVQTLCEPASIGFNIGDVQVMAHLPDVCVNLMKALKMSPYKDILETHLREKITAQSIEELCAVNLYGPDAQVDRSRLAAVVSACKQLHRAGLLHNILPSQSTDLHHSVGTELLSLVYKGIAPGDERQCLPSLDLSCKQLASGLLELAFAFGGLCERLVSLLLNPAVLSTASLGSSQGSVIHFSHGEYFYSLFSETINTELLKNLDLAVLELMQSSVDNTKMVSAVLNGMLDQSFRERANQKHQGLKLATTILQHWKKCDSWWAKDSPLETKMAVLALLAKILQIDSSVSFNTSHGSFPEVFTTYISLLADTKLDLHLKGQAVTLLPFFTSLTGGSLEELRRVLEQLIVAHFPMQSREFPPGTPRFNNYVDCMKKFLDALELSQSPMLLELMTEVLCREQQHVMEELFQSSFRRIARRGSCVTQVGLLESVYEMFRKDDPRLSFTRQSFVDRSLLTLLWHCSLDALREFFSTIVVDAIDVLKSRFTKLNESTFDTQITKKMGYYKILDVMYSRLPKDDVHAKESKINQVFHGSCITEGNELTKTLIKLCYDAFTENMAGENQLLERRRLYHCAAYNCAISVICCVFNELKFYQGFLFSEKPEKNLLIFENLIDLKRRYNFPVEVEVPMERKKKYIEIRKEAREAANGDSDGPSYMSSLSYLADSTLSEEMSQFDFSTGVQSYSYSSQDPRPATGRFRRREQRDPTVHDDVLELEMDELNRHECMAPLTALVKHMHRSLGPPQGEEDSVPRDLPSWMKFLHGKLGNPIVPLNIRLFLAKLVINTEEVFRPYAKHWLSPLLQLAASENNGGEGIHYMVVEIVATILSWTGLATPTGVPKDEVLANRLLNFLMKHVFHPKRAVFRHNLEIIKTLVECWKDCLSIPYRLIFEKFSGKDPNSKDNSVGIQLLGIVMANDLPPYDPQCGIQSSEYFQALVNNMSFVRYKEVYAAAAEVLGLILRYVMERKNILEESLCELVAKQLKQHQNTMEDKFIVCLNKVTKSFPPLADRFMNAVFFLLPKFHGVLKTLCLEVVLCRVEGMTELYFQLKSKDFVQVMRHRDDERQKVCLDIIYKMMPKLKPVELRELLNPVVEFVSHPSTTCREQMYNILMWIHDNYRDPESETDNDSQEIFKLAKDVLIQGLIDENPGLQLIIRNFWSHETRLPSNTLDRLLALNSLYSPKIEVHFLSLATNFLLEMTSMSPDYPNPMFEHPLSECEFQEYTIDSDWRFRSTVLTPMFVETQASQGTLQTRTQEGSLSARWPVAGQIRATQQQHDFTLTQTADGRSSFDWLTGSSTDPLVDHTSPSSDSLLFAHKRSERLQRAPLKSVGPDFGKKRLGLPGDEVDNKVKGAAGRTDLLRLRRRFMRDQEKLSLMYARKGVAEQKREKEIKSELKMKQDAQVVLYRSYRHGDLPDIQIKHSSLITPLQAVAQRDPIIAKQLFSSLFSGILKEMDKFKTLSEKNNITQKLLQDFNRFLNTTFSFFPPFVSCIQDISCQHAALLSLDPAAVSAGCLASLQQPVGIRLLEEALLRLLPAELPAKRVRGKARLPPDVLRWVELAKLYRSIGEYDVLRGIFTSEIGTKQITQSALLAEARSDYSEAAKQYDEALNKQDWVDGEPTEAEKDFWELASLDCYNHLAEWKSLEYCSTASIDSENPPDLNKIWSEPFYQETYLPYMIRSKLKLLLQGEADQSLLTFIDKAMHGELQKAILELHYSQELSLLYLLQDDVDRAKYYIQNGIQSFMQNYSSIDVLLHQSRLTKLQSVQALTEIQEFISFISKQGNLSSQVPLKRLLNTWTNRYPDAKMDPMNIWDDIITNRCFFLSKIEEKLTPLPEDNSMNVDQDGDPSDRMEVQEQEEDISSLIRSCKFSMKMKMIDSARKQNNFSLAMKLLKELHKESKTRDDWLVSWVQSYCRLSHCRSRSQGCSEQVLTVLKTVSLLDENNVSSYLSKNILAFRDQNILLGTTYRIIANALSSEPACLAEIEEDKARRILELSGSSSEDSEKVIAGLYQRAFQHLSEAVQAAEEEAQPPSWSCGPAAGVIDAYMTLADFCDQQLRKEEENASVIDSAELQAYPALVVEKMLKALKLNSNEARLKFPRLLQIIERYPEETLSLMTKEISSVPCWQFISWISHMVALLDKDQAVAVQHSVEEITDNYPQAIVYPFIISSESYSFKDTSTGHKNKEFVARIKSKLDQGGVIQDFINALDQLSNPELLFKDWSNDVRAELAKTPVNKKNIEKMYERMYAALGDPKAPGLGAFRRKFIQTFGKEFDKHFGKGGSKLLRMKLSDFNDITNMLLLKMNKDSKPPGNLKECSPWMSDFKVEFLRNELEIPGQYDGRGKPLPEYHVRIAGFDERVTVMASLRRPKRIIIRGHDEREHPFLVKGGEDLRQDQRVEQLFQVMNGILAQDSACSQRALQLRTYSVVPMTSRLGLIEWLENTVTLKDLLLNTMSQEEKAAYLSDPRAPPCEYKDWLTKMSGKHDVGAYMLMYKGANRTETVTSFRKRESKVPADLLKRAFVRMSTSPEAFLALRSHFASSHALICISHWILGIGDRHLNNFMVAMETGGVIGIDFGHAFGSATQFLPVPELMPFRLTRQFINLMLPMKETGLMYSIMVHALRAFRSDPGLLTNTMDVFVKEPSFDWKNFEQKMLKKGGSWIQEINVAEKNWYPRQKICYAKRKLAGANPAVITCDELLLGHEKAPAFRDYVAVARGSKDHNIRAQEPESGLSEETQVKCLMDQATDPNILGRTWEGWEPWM
UniProt Q9H9Q4: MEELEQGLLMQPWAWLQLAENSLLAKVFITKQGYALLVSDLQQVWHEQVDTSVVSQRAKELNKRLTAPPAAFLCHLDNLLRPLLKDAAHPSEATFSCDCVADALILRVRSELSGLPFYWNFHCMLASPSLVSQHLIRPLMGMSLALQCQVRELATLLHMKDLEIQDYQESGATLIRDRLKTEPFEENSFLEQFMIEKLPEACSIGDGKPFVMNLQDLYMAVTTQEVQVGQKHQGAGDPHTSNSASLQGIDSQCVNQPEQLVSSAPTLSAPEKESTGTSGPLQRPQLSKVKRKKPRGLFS

The target in assay [1] is T1, Flag-RIG-I (retinoic acid-inducible gene I, wild type) (UniProt O95786).
T1 sequence: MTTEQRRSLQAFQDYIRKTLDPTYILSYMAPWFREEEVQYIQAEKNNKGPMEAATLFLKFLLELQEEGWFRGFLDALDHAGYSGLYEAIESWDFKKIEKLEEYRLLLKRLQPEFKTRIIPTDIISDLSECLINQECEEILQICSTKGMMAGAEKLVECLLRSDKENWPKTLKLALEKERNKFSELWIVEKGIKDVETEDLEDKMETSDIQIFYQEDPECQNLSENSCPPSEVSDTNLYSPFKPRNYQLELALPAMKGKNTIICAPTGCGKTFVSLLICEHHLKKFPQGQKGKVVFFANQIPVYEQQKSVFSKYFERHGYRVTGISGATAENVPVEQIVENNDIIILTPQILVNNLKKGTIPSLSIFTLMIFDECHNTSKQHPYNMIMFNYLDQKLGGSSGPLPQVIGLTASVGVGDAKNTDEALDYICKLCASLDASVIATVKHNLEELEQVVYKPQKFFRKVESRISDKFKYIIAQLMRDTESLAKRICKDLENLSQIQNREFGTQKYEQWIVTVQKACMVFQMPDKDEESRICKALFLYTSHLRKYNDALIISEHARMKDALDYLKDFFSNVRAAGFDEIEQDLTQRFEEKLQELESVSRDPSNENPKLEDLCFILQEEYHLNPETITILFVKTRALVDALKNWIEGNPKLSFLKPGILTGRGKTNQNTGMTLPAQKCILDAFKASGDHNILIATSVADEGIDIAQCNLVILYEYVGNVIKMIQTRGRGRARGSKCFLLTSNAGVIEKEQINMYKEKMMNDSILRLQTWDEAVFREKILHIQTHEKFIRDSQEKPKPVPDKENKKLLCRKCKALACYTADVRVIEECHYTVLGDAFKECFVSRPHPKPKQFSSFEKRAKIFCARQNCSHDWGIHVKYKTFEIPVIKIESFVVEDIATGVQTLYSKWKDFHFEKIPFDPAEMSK
The assay can be described thus: co-IP; HEK293T transfected with empty vector or Flag-RIG-I; lysate (NETN buffer) precipitated with anti-Flag agarose beads; endogenous partners blotted.

Assay [2] deals with T1, Flag-RIG-I (retinoic acid-inducible gene I, wild type). The experiment in a line: co-IP; HEK293T transfected with Flag-RIG-I constructs and GFP-XRCC4; lysates incubated with anti-Flag agarose beads; blot.
For assay [3] the target is unchanged. The experiment in a line: co-IP; legend not shown (Supplementary Fig. 2b, c); RIG-I wild type or RNA binding-deficient mutants, cells with or without IR.
The target in assay [4] is T2, RIG-I (endogenous) (human (endogenous in A549)) (UniProt O95786).
T2 sequence: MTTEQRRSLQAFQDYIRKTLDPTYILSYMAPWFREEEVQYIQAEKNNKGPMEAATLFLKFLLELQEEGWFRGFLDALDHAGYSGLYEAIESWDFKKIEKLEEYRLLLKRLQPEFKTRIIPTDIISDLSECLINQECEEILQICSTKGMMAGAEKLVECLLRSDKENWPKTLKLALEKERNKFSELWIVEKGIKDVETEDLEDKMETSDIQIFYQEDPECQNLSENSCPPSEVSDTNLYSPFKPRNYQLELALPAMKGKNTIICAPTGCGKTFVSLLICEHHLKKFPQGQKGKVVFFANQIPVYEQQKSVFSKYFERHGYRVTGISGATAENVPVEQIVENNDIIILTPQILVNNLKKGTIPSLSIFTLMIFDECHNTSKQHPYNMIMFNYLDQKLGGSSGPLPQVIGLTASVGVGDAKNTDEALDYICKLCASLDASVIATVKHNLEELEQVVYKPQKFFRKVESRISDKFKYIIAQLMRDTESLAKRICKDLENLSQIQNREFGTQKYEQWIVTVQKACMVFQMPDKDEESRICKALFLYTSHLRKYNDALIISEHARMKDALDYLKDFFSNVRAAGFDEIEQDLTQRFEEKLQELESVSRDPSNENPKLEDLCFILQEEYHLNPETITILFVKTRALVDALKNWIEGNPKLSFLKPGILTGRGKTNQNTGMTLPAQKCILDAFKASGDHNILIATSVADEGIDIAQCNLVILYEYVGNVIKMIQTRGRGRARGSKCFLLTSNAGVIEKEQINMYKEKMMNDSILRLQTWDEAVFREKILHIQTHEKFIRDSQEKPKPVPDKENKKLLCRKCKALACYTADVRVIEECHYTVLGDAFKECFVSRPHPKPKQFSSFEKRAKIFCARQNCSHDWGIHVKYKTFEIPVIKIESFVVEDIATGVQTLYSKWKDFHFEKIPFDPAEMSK
The experiment in a line: co-IP.

The target of the next assay is GFP-XRCC4 (wild type) (UniProt Q13426). The assay can be described thus: co-IP; HEK293T transfected with GFP-XRCC4 constructs and Flag-RIG-I; lysates incubated with anti-GFP agarose beads; blot.
The next assay concerns the target Flag-XRCC4 (UniProt Q13426). The assay can be described thus: co-IP.

These are yes or no findings as the source states them, for the method shown. In cells and extracts the contact can be indirect. Some binding calls cover weakened binding; strength is not graded here. For some assays here: Sequences can lack the tags named with a protein.

For DNA-PK (from UniProt P78527 1-4128), in assay [1], the binding result is listed as “no binding”. In the case of “GFP-XRCC4 (wild type) (from UniProt Q13426 1-336)”, in assay [2], the binding entry is given as “binds”. Take XLF (from UniProt Q9H9Q4 1-299): in assay [1], the binding entry is “no binding”. Take “XRCC4 (endogenous) (from UniProt Q13426 1-336)”: the binding entry in assay [3], in assay [4] and in assay [1] was “binds” throughout.

B1: Flag-RIG-I (retinoic acid-inducible gene I, wild type) (protein, UniProt O95786 1-925)
chain: MTTEQRRSLQAFQDYIRKTLDPTYILSYMAPWFREEEVQYIQAEKNNKGPMEAATLFLKFLLELQEEGWFRGFLDALDHAGYSGLYEAIESWDFKKIEKLEEYRLLLKRLQPEFKTRIIPTDIISDLSECLINQECEEILQICSTKGMMAGAEKLVECLLRSDKENWPKTLKLALEKERNKFSELWIVEKGIKDVETEDLEDKMETSDIQIFYQEDPECQNLSENSCPPSEVSDTNLYSPFKPRNYQLELALPAMKGKNTIICAPTGCGKTFVSLLICEHHLKKFPQGQKGKVVFFANQIPVYEQQKSVFSKYFERHGYRVTGISGATAENVPVEQIVENNDIIILTPQILVNNLKKGTIPSLSIFTLMIFDECHNTSKQHPYNMIMFNYLDQKLGGSSGPLPQVIGLTASVGVGDAKNTDEALDYICKLCASLDASVIATVKHNLEELEQVVYKPQKFFRKVESRISDKFKYIIAQLMRDTESLAKRICKDLENLSQIQNREFGTQKYEQWIVTVQKACMVFQMPDKDEESRICKALFLYTSHLRKYNDALIISEHARMKDALDYLKDFFSNVRAAGFDEIEQDLTQRFEEKLQELESVSRDPSNENPKLEDLCFILQEEYHLNPETITILFVKTRALVDALKNWIEGNPKLSFLKPGILTGRGKTNQNTGMTLPAQKCILDAFKASGDHNILIATSVADEGIDIAQCNLVILYEYVGNVIKMIQTRGRGRARGSKCFLLTSNAGVIEKEQINMYKEKMMNDSILRLQTWDEAVFREKILHIQTHEKFIRDSQEKPKPVPDKENKKLLCRKCKALACYTADVRVIEECHYTVLGDAFKECFVSRPHPKPKQFSSFEKRAKIFCARQNCSHDWGIHVKYKTFEIPVIKIESFVVEDIATGVQTLYSKWKDFHFEKIPFDPAEMSK
As for B1, the binding entry with GFP-XRCC4 (wild type) was “binds”.

B2: GFP-RIG-I (protein, UniProt O95786 1-925)
chain: MTTEQRRSLQAFQDYIRKTLDPTYILSYMAPWFREEEVQYIQAEKNNKGPMEAATLFLKFLLELQEEGWFRGFLDALDHAGYSGLYEAIESWDFKKIEKLEEYRLLLKRLQPEFKTRIIPTDIISDLSECLINQECEEILQICSTKGMMAGAEKLVECLLRSDKENWPKTLKLALEKERNKFSELWIVEKGIKDVETEDLEDKMETSDIQIFYQEDPECQNLSENSCPPSEVSDTNLYSPFKPRNYQLELALPAMKGKNTIICAPTGCGKTFVSLLICEHHLKKFPQGQKGKVVFFANQIPVYEQQKSVFSKYFERHGYRVTGISGATAENVPVEQIVENNDIIILTPQILVNNLKKGTIPSLSIFTLMIFDECHNTSKQHPYNMIMFNYLDQKLGGSSGPLPQVIGLTASVGVGDAKNTDEALDYICKLCASLDASVIATVKHNLEELEQVVYKPQKFFRKVESRISDKFKYIIAQLMRDTESLAKRICKDLENLSQIQNREFGTQKYEQWIVTVQKACMVFQMPDKDEESRICKALFLYTSHLRKYNDALIISEHARMKDALDYLKDFFSNVRAAGFDEIEQDLTQRFEEKLQELESVSRDPSNENPKLEDLCFILQEEYHLNPETITILFVKTRALVDALKNWIEGNPKLSFLKPGILTGRGKTNQNTGMTLPAQKCILDAFKASGDHNILIATSVADEGIDIAQCNLVILYEYVGNVIKMIQTRGRGRARGSKCFLLTSNAGVIEKEQINMYKEKMMNDSILRLQTWDEAVFREKILHIQTHEKFIRDSQEKPKPVPDKENKKLLCRKCKALACYTADVRVIEECHYTVLGDAFKECFVSRPHPKPKQFSSFEKRAKIFCARQNCSHDWGIHVKYKTFEIPVIKIESFVVEDIATGVQTLYSKWKDFHFEKIPFDPAEMSK
Regarding B2, the binding result with Flag-XRCC4 is reported as “binds”.
